# Source: the supplement of paper PMC8728848
# The list shows a part of the results.
# What was measured:
# Assay in all cases: glycan array binding signal (z-score within array); higher = stronger binding
# Conditions in all cases: glycan notation: IUPAC condensed, linker removed
# [1] = target: Man(a1-2)Man(a1-3)[Man(a1-2)Man(a1-6)]Man(a1-6)[Man(a1-2)Man(a1-2)Man(a1-3)]Man(b1-4)GlcNAc(b1-4)GlcNAc
# Outline: (§1)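 The binding signal is a Z-score computed within each array and averaged over linkers. Arrays of the same protein sequence at different concentrations or buffers were also averaged together. Data originate from 3228 arrays in the Consortium for Functional Glycomics database, kept only where the protein sequence was available.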
# [2] = target: Man(a1-2)Man(a1-3)[Man(a1-6)]Man(a1-6)[Man(a1-2)Man(a1-3)]Man(b1-4)GlcNAc(b1-4)GlcNAc
# Outline: as §1
# [3] = target: Man(a1-2)Man(a1-6)[Man(a1-3)]Man(a1-6)[Man(a1-2)Man(a1-2)Man(a1-3)]Man
# Outline: as §1
# [4] = target: Man(a1-2)Man(a1-6)[Man(a1-3)]Man(a1-6)[Man(a1-2)Man(a1-2)Man(a1-3)]Man(b1-4)GlcNAc(b1-4)GlcNAc
# Outline: as §1
# Man(a1-3)[Man(a1-6)]Man = target: Man(a1-3)[Man(a1-6)]Man
# Outline: as §1
# [5] = target: Man(a1-3)[Man(a1-6)]Man(a1-6)[Man(a1-2)Man(a1-3)]Man(b1-4)GlcNAc(b1-4)GlcNAc
# Outline: as §1
# [6] = target: Man(a1-3)[Man(a1-6)]Man(a1-6)[Man(a1-3)]Man
# Outline: as §1
# [7] = target: Man(a1-3)[Man(a1-6)]Man(a1-6)[Man(a1-3)]Man(b1-4)GlcNAc(b1-4)GlcNAc
# Outline: as §1
# [8] = target: Man(a1-3)[Man(a1-6)]Man(b1-4)GlcNAc(b1-4)GlcNAc
# Outline: as §1
# [9] = target: Man(a1-3)[Man(a1-6)]Man(b1-4)GlcNAc(b1-4)[Fuc(a1-6)]GlcNAc
# Outline: as §1
# Man(a1-6)Man = target: Man(a1-6)Man
# Outline: as §1
# Man(b1-4)GlcNAc = target: Man(b1-4)GlcNAc
# Outline: as §1
# MurNAc(b1-4)GlcNAc = target: MurNAc(b1-4)GlcNAc
# Outline: as §1
# Neu5Ac(a2-3)Gal = target: Neu5Ac(a2-3)Gal
# Outline: as §1
# [10] = target: Neu5Ac(a2-3)Gal(b1-3)GalNAc
# Outline: as §1
# [11] = target: Neu5Ac(a2-3)Gal(b1-3)GalNAc(b1-3)Gal(a1-4)Gal(b1-4)Glc
# Outline: as §1
# [12] = target: Neu5Ac(a2-3)Gal(b1-3)GalNAc(b1-4)[Neu5Ac(a2-3)]Gal(b1-4)Glc
# Outline: as §1
# [13] = target: Neu5Ac(a2-3)Gal(b1-3)GalNAc(b1-4)[Neu5Ac(a2-8)Neu5Ac(a2-3)]Gal(b1-4)Glc
# Outline: as §1
# [14] = target: Neu5Ac(a2-3)Gal(b1-3)GalNAc6S
# Outline: as §1
# [15] = target: Neu5Ac(a2-3)Gal(b1-3)GlcNAc
# Outline: as §1
# [16] = target: Neu5Ac(a2-3)Gal(b1-3)GlcNAc(b1-2)Man
# Outline: as §1
# [17] = target: Neu5Ac(a2-3)Gal(b1-3)GlcNAc(b1-2)Man(a1-3)[GlcNAc(b1-4)][Neu5Ac(a2-3)Gal(b1-3)GlcNAc(b1-2)Man(a1-6)]Man(b1-4)GlcNAc(b1-4)GlcNAc
# Outline: as §1
# [18] = target: Neu5Ac(a2-3)Gal(b1-3)GlcNAc(b1-2)Man(a1-3)[Neu5Ac(a2-3)Gal(b1-3)GlcNAc(b1-2)Man(a1-6)]Man(b1-4)GlcNAc(b1-4)GlcNAc
# Outline: as §1
# [19] = target: Neu5Ac(a2-3)Gal(b1-3)GlcNAc(b1-3)Gal(b1-3)GlcNAc
# Outline: as §1
# [20] = target: Neu5Ac(a2-3)Gal(b1-3)GlcNAc(b1-3)Gal(b1-4)GlcNAc
# Outline: as §1
# [21] = target: Neu5Ac(a2-3)Gal(b1-3)GlcNAc(b1-3)GalNAc
# Outline: as §1
# [22] = target: Neu5Ac(a2-3)Gal(b1-3)GlcNAc(b1-4)Gal(b1-4)Glc
# Outline: as §1
# [23] = target: Neu5Ac(a2-3)Gal(b1-3)GlcNAc(b1-6)GalNAc
# Outline: as §1
# [24] = target: Neu5Ac(a2-3)Gal(b1-3)GlcNAc6S
# Outline: as §1
# [25] = target: Neu5Ac(a2-3)Gal(b1-3)[Fuc(a1-4)]GlcNAc
# Outline: as §1
# [26] = target: Neu5Ac(a2-3)Gal(b1-3)[Fuc(a1-4)]GlcNAc(b1-3)Gal(b1-3)[Fuc(a1-4)]GlcNAc
# Outline: as §1
# [27] = target: Neu5Ac(a2-3)Gal(b1-3)[Fuc(a1-4)]GlcNAc(b1-3)Gal(b1-4)[Fuc(a1-3)]GlcNAc
# Outline: as §1
# [28] = target: Neu5Ac(a2-3)Gal(b1-3)[GlcNAc(b1-6)]GalNAc
# Outline: as §1
# [29] = target: Neu5Ac(a2-3)Gal(b1-3)[Neu5Ac(a2-6)]GalNAc
# Outline: as §1
# [30] = target: Neu5Ac(a2-3)Gal(b1-3)[Neu5Ac(a2-6)]GlcNAc(b1-3)[Fuc(a1-3)[Gal(b1-4)]GlcNAc(b1-6)]Gal(b1-4)Glc
# Outline: as §1
# [31] = target: Neu5Ac(a2-3)Gal(b1-3)]Neu5Ac(a2-3)Gal(b1-4)]GlcNAc
# Outline: as §1
# Neu5Ac(a2-3)Gal(b1-4)Glc = target: Neu5Ac(a2-3)Gal(b1-4)Glc
# Outline: as §1
binder,measurement,setting,value
ACA (Amaranthus caudatus) (protein) MAGLPVIMCLKSNNNQKYLRYQSDNIQQYGLLQFSADKILDPLAQFEVEPSKTYDGLVHIKSRYTNKYLVRWSPNHYWITASANEPDENKSNWACTLFKPLYVEEGNMKKVRLLHVQLGHYTQNYTVGGSFVSYLFAESSQIDTGSKDVFHVIDWKSIFQFPKRYVTFKGNNGKYLGVITINQLPCLQFGYDNLNDPKVAHEMFVTSNGTICIKSTYMNKFWRLSTDDWILVDGNDPRETNEAAALFRSDVHDFNVISLLNMQKTWFIKRFTSGKPGFINCMNAATQNVDETAILEIIELGSNN,glycan array binding signal (z-score),[1],0.478
same,glycan array binding signal (z-score),[2],-0.324
same,glycan array binding signal (z-score),[3],-0.199
same,glycan array binding signal (z-score),[4],-0.196
same,glycan array binding signal (z-score),Man(a1-3)[Man(a1-6)]Man,0.164
same,glycan array binding signal (z-score),[5],6.44
same,glycan array binding signal (z-score),[6],-0.288
same,glycan array binding signal (z-score),[7],-0.156
same,glycan array binding signal (z-score),[8],-0.462
same,glycan array binding signal (z-score),[9],-0.62
same,glycan array binding signal (z-score),Man(a1-6)Man,1.4
same,glycan array binding signal (z-score),Man(b1-4)GlcNAc,-0.101
same,glycan array binding signal (z-score),MurNAc(b1-4)GlcNAc,-0.012
same,glycan array binding signal (z-score),Neu5Ac(a2-3)Gal,-0.232
same,glycan array binding signal (z-score),[10],-0.335
same,glycan array binding signal (z-score),[11],-0.168
same,glycan array binding signal (z-score),[12],-0.916
same,glycan array binding signal (z-score),[13],0.052
same,glycan array binding signal (z-score),[14],-0.248
same,glycan array binding signal (z-score),[15],0.142
same,glycan array binding signal (z-score),[16],-0.47
same,glycan array binding signal (z-score),[17],-0.413
same,glycan array binding signal (z-score),[18],0.136
same,glycan array binding signal (z-score),[19],-0.664
same,glycan array binding signal (z-score),[20],-0.237
same,glycan array binding signal (z-score),[21],-0.045
same,glycan array binding signal (z-score),[22],-0.059
same,glycan array binding signal (z-score),[23],-0.683
same,glycan array binding signal (z-score),[24],0.512
same,glycan array binding signal (z-score),[25],-0.247
same,glycan array binding signal (z-score),[26],-0.493
same,glycan array binding signal (z-score),[27],-0.248
same,glycan array binding signal (z-score),[28],-0.266
same,glycan array binding signal (z-score),[29],-0.397
same,glycan array binding signal (z-score),[30],-0.262
same,glycan array binding signal (z-score),[31],-0.479
same,glycan array binding signal (z-score),Neu5Ac(a2-3)Gal(b1-4)Glc,0.1
